From paper PMC10688982
Read-outs that look alike come from different tables or passages of the source. No constants are given. Whether binding was seen depends on the method and setting. In cells and extracts the contact can be indirect. Some results given as binding are weak or reduced against the parent protein; the word gives no strength. For some of these results: Where a sequence is shown, tags or fusion partners need not be part of it. Each block holds one molecule with its values, some of them ahead of it.

Chains of the proteins cited; added tags and fusions are not shown.
UniProt P54252: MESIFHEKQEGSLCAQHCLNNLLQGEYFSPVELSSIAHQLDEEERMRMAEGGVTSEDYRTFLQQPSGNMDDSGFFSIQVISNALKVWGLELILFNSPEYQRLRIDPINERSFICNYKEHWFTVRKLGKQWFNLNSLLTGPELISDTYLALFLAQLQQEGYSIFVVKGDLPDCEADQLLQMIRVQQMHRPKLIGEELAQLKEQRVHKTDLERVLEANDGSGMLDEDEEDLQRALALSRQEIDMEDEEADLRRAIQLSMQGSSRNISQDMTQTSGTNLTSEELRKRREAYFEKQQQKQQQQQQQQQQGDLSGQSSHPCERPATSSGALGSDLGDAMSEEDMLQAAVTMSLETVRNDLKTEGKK
UniProt P42224: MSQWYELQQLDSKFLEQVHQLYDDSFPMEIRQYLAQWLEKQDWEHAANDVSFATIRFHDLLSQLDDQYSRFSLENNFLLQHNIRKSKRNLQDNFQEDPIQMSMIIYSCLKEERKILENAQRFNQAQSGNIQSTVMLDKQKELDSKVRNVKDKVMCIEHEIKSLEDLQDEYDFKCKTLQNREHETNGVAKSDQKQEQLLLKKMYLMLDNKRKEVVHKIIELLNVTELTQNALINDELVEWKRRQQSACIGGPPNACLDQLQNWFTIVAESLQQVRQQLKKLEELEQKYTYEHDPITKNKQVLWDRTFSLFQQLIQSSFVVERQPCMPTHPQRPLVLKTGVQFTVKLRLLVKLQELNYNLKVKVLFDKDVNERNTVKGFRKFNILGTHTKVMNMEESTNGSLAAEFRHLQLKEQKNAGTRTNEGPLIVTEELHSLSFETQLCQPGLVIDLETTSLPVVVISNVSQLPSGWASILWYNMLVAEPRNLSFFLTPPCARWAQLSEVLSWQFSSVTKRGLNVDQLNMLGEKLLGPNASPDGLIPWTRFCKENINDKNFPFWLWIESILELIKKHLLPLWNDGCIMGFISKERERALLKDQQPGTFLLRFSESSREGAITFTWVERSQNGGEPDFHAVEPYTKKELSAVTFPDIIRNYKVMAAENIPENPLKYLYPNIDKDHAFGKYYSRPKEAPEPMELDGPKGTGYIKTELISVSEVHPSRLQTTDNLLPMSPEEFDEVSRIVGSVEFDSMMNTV
UniProt P40763: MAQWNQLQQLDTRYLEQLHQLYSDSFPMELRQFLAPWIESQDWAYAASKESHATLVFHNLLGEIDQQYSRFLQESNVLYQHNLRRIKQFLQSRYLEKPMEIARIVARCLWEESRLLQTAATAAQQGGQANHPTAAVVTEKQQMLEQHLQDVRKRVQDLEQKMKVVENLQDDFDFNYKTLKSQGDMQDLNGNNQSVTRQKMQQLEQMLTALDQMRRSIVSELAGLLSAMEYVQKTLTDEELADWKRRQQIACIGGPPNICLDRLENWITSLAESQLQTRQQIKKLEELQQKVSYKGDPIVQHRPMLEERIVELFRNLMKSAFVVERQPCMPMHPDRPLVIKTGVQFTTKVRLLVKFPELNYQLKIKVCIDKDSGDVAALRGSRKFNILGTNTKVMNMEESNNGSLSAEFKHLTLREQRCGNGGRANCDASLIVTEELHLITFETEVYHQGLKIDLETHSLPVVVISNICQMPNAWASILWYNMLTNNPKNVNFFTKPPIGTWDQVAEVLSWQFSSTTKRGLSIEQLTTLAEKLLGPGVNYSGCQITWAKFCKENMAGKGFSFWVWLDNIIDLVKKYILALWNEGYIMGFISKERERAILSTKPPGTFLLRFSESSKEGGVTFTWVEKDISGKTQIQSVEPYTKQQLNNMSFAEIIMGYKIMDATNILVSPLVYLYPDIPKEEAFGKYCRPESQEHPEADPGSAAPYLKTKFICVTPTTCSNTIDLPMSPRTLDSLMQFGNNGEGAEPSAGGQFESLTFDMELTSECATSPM
UniProt P05412: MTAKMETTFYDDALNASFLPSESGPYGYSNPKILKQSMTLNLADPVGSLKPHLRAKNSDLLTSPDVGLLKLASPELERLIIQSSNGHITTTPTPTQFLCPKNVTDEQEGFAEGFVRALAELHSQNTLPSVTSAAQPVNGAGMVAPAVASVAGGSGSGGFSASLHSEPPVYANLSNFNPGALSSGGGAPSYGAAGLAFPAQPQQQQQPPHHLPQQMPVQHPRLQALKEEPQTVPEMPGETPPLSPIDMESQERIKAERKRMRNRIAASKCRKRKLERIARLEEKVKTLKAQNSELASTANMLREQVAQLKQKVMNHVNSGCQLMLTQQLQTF
UniProt Q16665: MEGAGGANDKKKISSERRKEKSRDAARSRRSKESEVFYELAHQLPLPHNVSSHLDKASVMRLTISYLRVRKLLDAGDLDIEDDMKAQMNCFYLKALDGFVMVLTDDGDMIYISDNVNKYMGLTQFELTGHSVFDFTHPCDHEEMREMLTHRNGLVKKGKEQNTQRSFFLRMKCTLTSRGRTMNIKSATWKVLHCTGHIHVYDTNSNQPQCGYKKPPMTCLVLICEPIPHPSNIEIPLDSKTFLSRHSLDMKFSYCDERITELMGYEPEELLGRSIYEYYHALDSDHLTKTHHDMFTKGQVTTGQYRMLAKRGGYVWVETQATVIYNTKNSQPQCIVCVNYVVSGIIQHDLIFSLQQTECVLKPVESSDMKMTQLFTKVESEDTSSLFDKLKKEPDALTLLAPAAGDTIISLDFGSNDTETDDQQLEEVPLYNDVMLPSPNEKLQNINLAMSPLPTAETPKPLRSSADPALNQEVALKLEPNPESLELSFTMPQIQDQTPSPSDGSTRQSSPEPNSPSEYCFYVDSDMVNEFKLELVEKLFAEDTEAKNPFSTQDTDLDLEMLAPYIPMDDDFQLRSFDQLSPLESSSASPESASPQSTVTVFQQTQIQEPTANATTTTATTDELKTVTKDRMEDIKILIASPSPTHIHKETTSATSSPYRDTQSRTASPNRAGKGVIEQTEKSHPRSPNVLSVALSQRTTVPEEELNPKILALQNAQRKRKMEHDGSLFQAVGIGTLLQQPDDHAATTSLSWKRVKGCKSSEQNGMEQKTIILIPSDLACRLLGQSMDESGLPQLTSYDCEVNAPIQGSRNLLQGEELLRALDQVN
UniProt Q99814: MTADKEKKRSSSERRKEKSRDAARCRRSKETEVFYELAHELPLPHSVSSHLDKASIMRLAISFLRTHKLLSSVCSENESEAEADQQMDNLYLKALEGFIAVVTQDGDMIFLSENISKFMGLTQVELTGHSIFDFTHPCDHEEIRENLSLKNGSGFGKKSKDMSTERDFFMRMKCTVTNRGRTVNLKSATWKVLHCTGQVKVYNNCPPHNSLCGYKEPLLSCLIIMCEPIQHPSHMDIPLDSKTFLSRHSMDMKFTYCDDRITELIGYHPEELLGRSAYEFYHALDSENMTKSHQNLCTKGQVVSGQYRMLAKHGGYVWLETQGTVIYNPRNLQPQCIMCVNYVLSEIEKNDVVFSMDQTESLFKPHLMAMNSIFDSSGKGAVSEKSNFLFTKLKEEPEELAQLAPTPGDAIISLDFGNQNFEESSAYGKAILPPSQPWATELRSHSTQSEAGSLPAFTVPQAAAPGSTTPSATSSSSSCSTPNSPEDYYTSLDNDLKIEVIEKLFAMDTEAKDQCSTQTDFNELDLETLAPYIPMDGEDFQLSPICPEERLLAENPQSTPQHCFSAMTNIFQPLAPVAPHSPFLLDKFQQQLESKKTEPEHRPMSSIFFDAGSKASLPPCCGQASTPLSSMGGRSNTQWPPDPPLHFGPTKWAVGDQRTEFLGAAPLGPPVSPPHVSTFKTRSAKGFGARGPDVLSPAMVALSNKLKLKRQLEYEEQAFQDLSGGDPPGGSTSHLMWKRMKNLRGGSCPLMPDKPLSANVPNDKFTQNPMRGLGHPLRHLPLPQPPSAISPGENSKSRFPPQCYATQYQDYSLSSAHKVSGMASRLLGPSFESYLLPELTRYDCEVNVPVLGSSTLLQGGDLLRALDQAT
UniProt Q04207: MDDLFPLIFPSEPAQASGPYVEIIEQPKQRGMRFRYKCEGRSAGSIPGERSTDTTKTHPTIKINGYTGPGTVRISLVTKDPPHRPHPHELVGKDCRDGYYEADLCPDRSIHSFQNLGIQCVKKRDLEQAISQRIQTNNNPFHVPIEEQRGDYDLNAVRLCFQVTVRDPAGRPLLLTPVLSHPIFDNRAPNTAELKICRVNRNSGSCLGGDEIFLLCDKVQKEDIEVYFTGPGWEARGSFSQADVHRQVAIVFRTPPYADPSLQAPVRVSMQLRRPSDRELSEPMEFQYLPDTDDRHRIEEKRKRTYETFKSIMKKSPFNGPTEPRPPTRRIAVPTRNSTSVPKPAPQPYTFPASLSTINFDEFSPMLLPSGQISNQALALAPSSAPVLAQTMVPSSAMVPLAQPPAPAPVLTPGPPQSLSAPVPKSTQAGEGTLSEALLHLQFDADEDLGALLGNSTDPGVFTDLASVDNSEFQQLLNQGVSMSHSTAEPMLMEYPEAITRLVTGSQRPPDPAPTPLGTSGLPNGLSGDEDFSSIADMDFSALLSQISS
UniProt P01106: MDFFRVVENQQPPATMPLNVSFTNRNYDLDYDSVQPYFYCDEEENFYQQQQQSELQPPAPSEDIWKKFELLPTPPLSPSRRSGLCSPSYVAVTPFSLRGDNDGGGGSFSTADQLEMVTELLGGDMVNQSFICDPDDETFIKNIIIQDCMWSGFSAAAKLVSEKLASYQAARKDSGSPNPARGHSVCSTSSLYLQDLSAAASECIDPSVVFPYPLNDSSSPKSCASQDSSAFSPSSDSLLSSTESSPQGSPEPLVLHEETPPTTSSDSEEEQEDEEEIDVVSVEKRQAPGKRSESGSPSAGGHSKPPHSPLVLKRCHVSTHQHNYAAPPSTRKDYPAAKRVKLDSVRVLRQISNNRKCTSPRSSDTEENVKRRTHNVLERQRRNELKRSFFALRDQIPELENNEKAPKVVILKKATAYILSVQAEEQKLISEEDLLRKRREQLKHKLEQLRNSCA

Key:
[1] = target: ATXN3 (transfected, tag not stated for the experiment) (human) (UniProt P54252); assay: co-IP; transiently transfected HEK293T cells, harvested 48 h after transfection; RIPA lysis buffer, immunoprecipitation with the indicated antibody and Protein G Sepharose, Western blotting
FLAG-ATXN3 (human) = FLAG-ATXN3 (human) (UniProt P54252); assay: as above
[2] = target: ATXN3 (endogenous, A549 cells) (human (endogenous in A549)) (UniProt P54252); assay: co-IP; endogenous proteins in A549 cells; RIPA lysis buffer, immunoprecipitation with the indicated antibody and Protein G Sepharose, Western blotting
[3] = target: ATXN3 (transfected, tag not stated for the experiment) (human) (UniProt P54252); assay: co-IP; both proteins overexpressed; cells not named in the sentence (Supplemental Table 1)
[4] = target: ATXN3 (transfected, tag not stated for the experiment) (human) (UniProt P54252); assay: co-IP; transiently transfected HEK293T cells, harvested 48 h after transfection; RIPA lysis buffer, immunoprecipitation with the indicated antibody and Protein G Sepharose, Western blotting; remark: listed apart in the source
[5] = target: ATXN3 (endogenous, cells not named) (UniProt P54252); assay: co-IP; endogenous proteins, cells not named in the text (Supplemental Figure 6B)
[6] = target: ATXN3 (endogenous, A549 cells) (human (endogenous in A549)) (UniProt P54252); assay: co-IP; endogenous proteins in A549 cells; RIPA lysis buffer, immunoprecipitation with the indicated antibody and Protein G Sepharose, Western blotting; remark: listed apart in the source

Molecule: STAT1 (A549 cells) (from UniProt P42224 1-750)
binding [2]: no binding

Molecule: STAT3 (endogenous, A549 cells) (from UniProt P40763 1-770)
binding [2]: binds

Molecule: c-Jun (from UniProt P05412 1-331)
binding [1]: no binding

B3: FLAG-IRF1 (protein, UniProt P10914 1-325)
chain: MPITRMRMRPWLEMQINSNQIPGLIWINKEEMIFQIPWKHAAKHGWDINKDACLFRSWAIHTGRYKAGEKEPDPKTWKANFRCAMNSLPDIEEVKDQSRNKGSSAVRVYRMLPPLTKNQRKERKSKSSRDAKSKAKRKSCGDSSPDTFSDGLSSSTLPDDHSSYTVPGYMQDLEVEQALTPALSPCAVSSTLPDWHIPVEVVPDSTSDLYNFQVSPMPSTSEATTDEDEEGKLPEDIMKLLEQSEWQPTNVDGKGYLLNEPGVQPTSVYGDFSCKEEPEIDSPGGDIGLSLQRVFTDLKNMDATWLDSLLTPVRLPSIQAIPCAP
binding [4]: binds

B4: IRF1 (endogenous, A549 cells) (protein, UniProt P10914 1-325)
chain: MPITRMRMRPWLEMQINSNQIPGLIWINKEEMIFQIPWKHAAKHGWDINKDACLFRSWAIHTGRYKAGEKEPDPKTWKANFRCAMNSLPDIEEVKDQSRNKGSSAVRVYRMLPPLTKNQRKERKSKSSRDAKSKAKRKSCGDSSPDTFSDGLSSSTLPDDHSSYTVPGYMQDLEVEQALTPALSPCAVSSTLPDWHIPVEVVPDSTSDLYNFQVSPMPSTSEATTDEDEEGKLPEDIMKLLEQSEWQPTNVDGKGYLLNEPGVQPTSVYGDFSCKEEPEIDSPGGDIGLSLQRVFTDLKNMDATWLDSLLTPVRLPSIQAIPCAP
binding [6]: binds

Next, values leading:

binding [1]: no binding
Molecule: HA-HIF-1α (from UniProt Q16665 1-826)

binding (FLAG-ATXN3 (human)): binds
Molecule: HA-HIF-2α (from UniProt Q99814 1-870)

binding [2]: binds
Molecule: HIF-2α (endogenous, A549 cells) (from UniProt Q99814 1-870)

binding [3]: no binding
Molecule: NF-κB (p65) (from UniProt Q04207 1-549)

binding [1]: binds
Molecule: STAT3 (transfected) (from UniProt P40763 1-770)

binding [1]: no binding
Molecule: c-MYC (from UniProt P01106 1-454)

binding [4]: binds
B1: JunB (transfected) (protein, UniProt P17275 1-347)
chain: MCTKMEQPFYHDDSYTATGYGRAPGGLSLHDYKLLKPSLAVNLADPYRSLKAPGARGPGPEGGGGGSYFSGQGSDTGASLKLASSELERLIVPNSNGVITTTPTPPGQYFYPRGGGSGGGAGGAGGGVTEEQEGFADGFVKALDDLHKMNHVTPPNVSLGATGGPPAGPGGVYAGPEPPPVYTNLSSYSPASASSGGAGAAVGTGSSYPTTTISYLPHAPPFAGGHPAQLGLGRGASTFKEEPQTVPEARSRDATPPVSPINMEDQERIKVERKRLRNRLAATKCRKRKLERIARLEDKVKTLKAENAGLSSTAGLLREQVAQLKQKVMTHVSNGCQLLLGVKGHAF

binding [5]: binds
B2: JunB (endogenous, cells not named) (protein, UniProt P17275 1-347)
chain: MCTKMEQPFYHDDSYTATGYGRAPGGLSLHDYKLLKPSLAVNLADPYRSLKAPGARGPGPEGGGGGSYFSGQGSDTGASLKLASSELERLIVPNSNGVITTTPTPPGQYFYPRGGGSGGGAGGAGGGVTEEQEGFADGFVKALDDLHKMNHVTPPNVSLGATGGPPAGPGGVYAGPEPPPVYTNLSSYSPASASSGGAGAAVGTGSSYPTTTISYLPHAPPFAGGHPAQLGLGRGASTFKEEPQTVPEARSRDATPPVSPINMEDQERIKVERKRLRNRLAATKCRKRKLERIARLEDKVKTLKAENAGLSSTAGLLREQVAQLKQKVMTHVSNGCQLLLGVKGHAF
